Reference: the supplement of paper PMC4967469

Experiments:
Assay in all cases: Viability of human cancer cell lines after 72 h of drug (GDSC screen)
Docetaxel = compound: CC(=O)O[C@@]12CO[C@@H]1C[C@H](O)[C@@]1(C)C(=O)[C@H](O)C3=C(C)[C@@H](OC(=O)[C@H](O)[C@@H](NC(=O)OC(C)(C)C)c4ccccc4)C[C@@](O)([C@@H](OC(=O)c4ccccc4)[C@H]21)C3(C)C [Docetaxel]; settings: top dose 0.0125 µM
Description: (§1)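 Human cancer cell lines in 384-well plates, medium with 10% serum, drug for 72 h over a 256-fold dose range (nine 2-fold or five 4-fold steps up to the top dose). Adherent lines were fixed and stained with the nucleic acid dye Syto60, suspension lines read with resazurin; signal relative to control wells, capped at 0 and 100%. One two-parameter sigmoid per drug and line, fitted in a mixed model over all curves with the slope shared within a line.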

AMG-706 = compound: CC1(C)CNc2cc(NC(=O)c3cccnc3NCc3ccncc3)ccc21 [AMG-706]; settings: top dose 2 µM; top dose inferred
Description: as §1

Cyclopamine = compound: CC1=C2C[C@H]3[C@@H](CC=C4C[C@@H](O)CC[C@@]43C)[C@@H]2CC[C@]12O[C@@H]1C[C@H](C)CN[C@H]1[C@H]2C [Cyclopamine]; settings: top dose 16 µM; top dose inferred
Description: as §1

JNK Inhibitor VIII = compound: CCOc1nc(NC(=O)Cc2cc(OC)ccc2OC)cc(N)c1C#N [JNK Inhibitor VIII]; settings: top dose 10 µM; top dose inferred
Description: as §1

NSC-207895 = compound: CN1CCN(c2ccc([N+](=O)[O-])c3no[n+]([O-])c23)CC1 [NSC-207895]; settings: top dose 20 µM; top dose inferred
Description: as §1

FTI-277 = compound: COC(=O)[C@H](CCSC)NC(=O)c1ccc(NC[C@@H](N)CS)cc1-c1ccccc1 [FTI-277]; settings: top dose 1.024 µM; top dose inferred
Description: as §1

YM155 = compound: COCC[n+]1c2c(n(Cc3cnccn3)c1C)C(=O)c1ccccc1C2=O [YM155]; settings: top dose 5.12 µM
Description: as §1

OSI-906 = compound: C[C@]1(O)C[C@@H](c2nc(-c3ccc4ccc(-c5ccccc5)nc4c3)c3c(N)nccn32)C1 [OSI-906]; settings: top dose 2.56 µM; top dose inferred
Description: as §1

PHA-665752 = compound: Cc1[nH]c(/C=C2\C(=O)Nc3ccc(S(=O)(=O)Cc4c(Cl)cccc4Cl)cc32)c(C)c1C(=O)N1CCC[C@@H]1CN1CCCC1 [PHA-665752]; settings: top dose 2 µM
Description: as §1

SB-715992 = compound: Cc1ccc(C(=O)N(CCCN)[C@@H](c2nc3cc(Cl)ccc3c(=O)n2Cc2ccccc2)C(C)C)cc1 [SB-715992]; settings: top dose 0.128 µM; top dose inferred
Description: as §1

JQ1 = compound: Cc1sc2c(c1C)C(c1ccc(Cl)cc1)=N[C@@H](CC(=O)OC(C)(C)C)c1nnc(C)n1-2 [JQ1]
Description: as §1

Belinostat = compound: O=C(/C=C/c1cccc(S(=O)(=O)Nc2ccccc2)c1)NO [Belinostat]; settings: top dose 20 µM; top dose inferred
Description: as §1

CGP-60474 = compound: OCCCNc1cc(-c2ccnc(Nc3cccc(Cl)c3)n2)ccn1 [CGP-60474]; settings: top dose 0.256 µM; top dose inferred
Description: as §1

JNJ-26854165 = compound: c1ccc2c(CCNc3ccc(Nc4ccncc4)cc3)c[nH]c2c1 [JNJ-26854165]; settings: top dose 10 µM
Description: as §1

[1] = top dose 1 µM, screen: GDSC drug entry 1218, top dose inferred
[2] = top dose 2.56 µM, screen: GDSC drug entry 163

| Cell Line | AUC (Docetaxel) | IC50 (Docetaxel) [µM] | AUC (AMG-706) | IC50 (AMG-706) [µM] | AUC (Cyclopamine) | IC50 (Cyclopamine) [µM] | AUC (JNK Inhibitor VIII) | IC50 (JNK Inhibitor VIII) [µM] | AUC (NSC-207895) | IC50 (NSC-207895) [µM] | AUC (FTI-277) | IC50 (FTI-277) [µM] | AUC (YM155) | IC50 (YM155) [µM] | AUC (OSI-906) | IC50 (OSI-906) [µM] | AUC (PHA-665752) | IC50 (PHA-665752) [µM] | AUC (SB-715992) | IC50 (SB-715992) [µM] | AUC (JQ1; [1]) | IC50 (JQ1; [1]) [µM] | AUC (JQ1; [2]) | IC50 (JQ1; [2]) [µM] | AUC (Belinostat) | IC50 (Belinostat) [µM] | AUC (CGP-60474) | IC50 (CGP-60474) [µM] | AUC (JNJ-26854165) | IC50 (JNJ-26854165) [µM] |
| --- | --- | --- | --- | --- | --- | --- | --- | --- | --- | --- | --- | --- | --- | --- | --- | --- | --- | --- | --- | --- | --- | --- | --- | --- | --- | --- | --- | --- | --- | --- |
| ES7 (Ewing sarcoma, adherent) | 0.445 | 0.000551 | 0.938 | > 2 | 0.984 | > 16 | 0.976 | > 10 | 0.926 | > 20 | 0.973 | > 1.02 | 0.027 | < 0.02 | 0.923 | > 2.56 | 0.97 | > 2 | 0.529 | 0.00965 | 0.98 | > 1 | 0.839 | 1.82 | 0.166 | 0.115 | 0.86 | 0.224 | 0.87 | 9.81 |
| NB13 (neuroblastoma, adherent) | 0.586 | 0.0013 | 0.985 | > 2 | 0.99 | > 16 | 0.938 | > 10 | 0.768 | 6.65 | 0.986 | > 1.02 | 0.049 | < 0.02 | 0.883 | 2.19 | 0.975 | > 2 | 0.969 | > 0.128 | 0.99 | > 1 | 0.85 | 1.61 | 0.153 | 0.128 | 0.766 | 0.0839 | 0.944 | > 10 |
| HT (B-cell lymphoma, suspension) | 0.915 | > 0.0125 | 0.99 | > 2 | 0.973 | > 16 | 0.985 | > 10 | 0.954 | > 20 | 0.99 | > 1.02 | 0.021 | < 0.02 | 0.988 | > 2.56 | 0.99 | > 2 | 0.673 | 0.0232 | 0.877 | 0.861 | 0.809 | 1.2 | 0.214 | 0.198 | 0.657 | 0.0418 | 0.962 | > 10 |
| EW-13 (Ewing sarcoma, suspension) | 0.966 | > 0.0125 | 0.985 | > 2 | 0.985 | > 16 | 0.986 | > 10 | 0.984 | > 20 | 0.985 | > 1.02 | 0.152 | 0.0229 | 0.971 | > 2.56 | 0.972 | > 2 | 0.765 | 0.0517 | 0.779 | 0.455 | 0.801 | 1.41 | 0.526 | 1.49 | 0.953 | > 0.256 | 0.981 | > 10 |

Lines with a small IC50 respond at low doses; a limit (>, <) means that the fit lies beyond the doses tested. AUC, from the same fit, is the share of area under the viability curve across the 256-fold dose range; it is 1 without any effect and falls as sensitivity rises. For part of these data: The top dose, if marked as inferred, comes from the curve model; the source does not state it. For part of these data: Where an entry number is given, a second screen of the drug exists; the two often differ.
